Numbering of substitutions follows the chain as printed; changes in the protein carry UniProt numbers. The list shows a part of the results.
B1: GGCUUGA (DNA:RNA)
RNA: GGGAGACCGGAAUUCAGAUUGUCCGGCUUGAUUAAAUCCCGUCGUAGCCACCA
DNA 1: CAATCTGAATTCCGGTCTCCC
DNA 2: TGGTGGCTACGACGGGATT
B2: CGGGCCC (DNA:RNA)
RNA: B1 RNA with G25C, C27G, U28G, U29C, G30C, A31C
DNA 1: CAATCTGAATTCCGGTCTCCC
DNA 2: TGGTGGCTACGACGGGATT
B3: UACGGUU (DNA:RNA)
RNA: B1 RNA with G25U, G26A, U28G, U29G, G30U, A31U
DNA 1: CAATCTGAATTCCGGTCTCCC
DNA 2: TGGTGGCTACGACGGGATT
B4: GUAGGUU (DNA:RNA)
RNA: B1 RNA with G26U, C27A, U28G, U29G, G30U, A31U
DNA 1: CAATCTGAATTCCGGTCTCCC
DNA 2: TGGTGGCTACGACGGGATT
B5: CUGCCAC (DNA:RNA)
RNA: GGGAGACCGGAAUUCAGAUUGUCCCUGCCACUUAAAUCCCGUCGUAGCCACCA
DNA 1: CAATCTGAATTCCGGTCTCCC
DNA 2: TGGTGGCTACGACGGGATT
B6: UCUCAAG (DNA:RNA)
RNA: B5 RNA with C25U, U26C, G27U, C29A, C31G
DNA 1: CAATCTGAATTCCGGTCTCCC
DNA 2: TGGTGGCTACGACGGGATT
B7: UCGAGGU (DNA:RNA)
RNA: B5 RNA with C25U, U26C, C28A, C29G, A30G, C31U
DNA 1: CAATCTGAATTCCGGTCTCCC
DNA 2: TGGTGGCTACGACGGGATT
B8: GCAAACA (DNA:RNA)
RNA: B1 RNA with G26C, C27A, U28A, U29A, G30C
DNA 1: CAATCTGAATTCCGGTCTCCC
DNA 2: TGGTGGCTACGACGGGATT
B9: UCUCGUA (DNA:RNA)
RNA: B5 RNA with C25U, U26C, G27U, C29G, A30U, C31A
DNA 1: CAATCTGAATTCCGGTCTCCC
DNA 2: TGGTGGCTACGACGGGATT

molecular target: T1, RBFOX1 RRM (Homo sapiens, UniProt Q9NWB1 109-208); assay: EMSA; HiTS-Eq, 1 nM pool, 10 min; buffer printed only for the single-RNA assays: 10 mM Tris pH 7.5, 150 mM NaCl, 3.4 mM EDTA, 0.001% NP-40, 30 C; conditions: tags: His6 N-terminal (pET28a); label: 5' 32P
T1 sequence: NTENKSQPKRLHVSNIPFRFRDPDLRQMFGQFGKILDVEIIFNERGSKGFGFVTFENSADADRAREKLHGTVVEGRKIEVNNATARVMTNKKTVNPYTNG
How it was run: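 Purified wild-type or mutant RbFox RRM at increasing concentrations was equilibrated with 1 nM of 5′-radiolabelled RNA carrying 7 randomized nucleotides for 10 min in 50 µL. Unbound RNA was separated by 8% native PAGE and sequenced. Relative association constants came from read-count changes of each RNA species compared with the control reaction, normalised to the cognate motif.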

Binder | binding signal
B1 | 0.0309 KA relative to UGCAUGU
B2 | 0.0176 KA relative to UGCAUGU
B3 | 0.0111 KA relative to UGCAUGU
B4 | 0.0129 KA relative to UGCAUGU
B5 | 0.0115 KA relative to UGCAUGU
B6 | 0.00583 KA relative to UGCAUGU
B7 | 0.0144 KA relative to UGCAUGU
B8 | 0.00106 KA relative to UGCAUGU
B9 | 0.00944 KA relative to UGCAUGU
